{"source": "the supplement of paper PMC11741623", "binders": {"B1": {"name": "ABLIM1, O14639 (protein)", "chain": "MPAFLGLKCLGKLCSSEKSKVTSSERTSARGSNRKRLIVEDRRVSGTSFTAHRRATITHLLYLCPKDYCPRGRVCNSVDPFVAHPQDPHHPSEKPVIHCHKCGEPCKGEVLRVQTKHFHIKCFTCKVCGCDLAQGGFFIKNGEYLCTLDYQRMYGTRCHGCGEFVEGEVVTALGKTYHPNCFACTICKRPFPPGDRVTFNGRDCLCQLCAQPMSSSPKETTFSSNCAGCGRDIKNGQALLALDKQWHLGCFKCKSCGKVLTGEYISKDGAPYCEKDYQGLFGVKCEACHQFITGKVLEAGDKHYHPSCARCSRCNQMFTEGEEMYLQGSTVWHPDCKQSTKTEEKLRPTRTSSESIYSRPGSSIPGSPGHTIYAKVDNEILDYKDLAAIPKVKAIYDIERPDLITYEPFYTSGYDDKQERQSLGESPRTLSPTPSAEGYQDVRDRMIHRSTSQGSINSPVYSRHSYTPTTSRSPQHFHRPGNEPSSGRNSPLPYRPDSRPLTPTYAQAPKHFHVPDQGINIYRKPPIYKQHAALAAQSKSSEDIIKFSKFPAAQAPDPSETPKIETDHWPGPPSFAVVGPDMKRRSSGREEDDEELLRRRQLQEEQLMKLNSGLGQLILKEEMEKESRERSSLLASRYDSPINSASHIPSSKTASLPGYGRNGLHRPVSTDFAQYNSYGDVSGGVRDYQTLPDGHMPAMRMDRGVSMPNMLEPKIFPYEMLMVTNRGRNKILREVDRTRLERHLAPEVFREIFGMSIQEFDRLPLWRRNDMKKKAKLF"}, "B2": {"name": "ADORA2B, P29275 (protein)", "chain": "MLLETQDALYVALELVIAALSVAGNVLVCAAVGTANTLQTPTNYFLVSLAAADVAVGLFAIPFAITISLGFCTDFYGCLFLACFVLVLTQSSIFSLLAVAVDRYLAICVPLRYKSLVTGTRARGVIAVLWVLAFGIGLTPFLGWNSKDSATNNCTEPWDGTTNESCCLVKCLFENVVPMSYMVYFNFFGCVLPPLLIMLVIYIKIFLVACRQLQRTELMDHSRTTLQREIHAAKSLAMIVGIFALCWLPVHAVNCVTLFQPAQGKNKPKWAMNMAILLSHANSVVNPIVYAYRNRDFRYTFHKIISRYLLCQADVKSGNGQAGVQPALGVGL"}, "B3": {"name": "ATP5L2, Q7Z4Y8 (protein)", "chain": "MAPFVRNLVEKTPALVNAAVTYLKPRLAAFWYYTTVELVPPTPAEIPRAIQSLKKIVSSAQTGSFKQLTVKEALLNGLVATEVSTWFYVREITGKRGIIG"}}, "note": "Some of the results follow. Interaction screen of human proteins with wild-type SARS-CoV-2 proteins by split-DHFR complementation in yeast, 1 µg/mL methotrexate. Value = fitness of the pair (three or more lineages) minus that of the viral protein without a human partner, on a scale set by negative (0) and fused positive (1) controls, mean of up to three cultures; higher = more likely to interact. Active = false discovery rate below 0.05 (one-sided t-test) in at least one culture. Nearly all pairs are not hits, and differences among them are mostly noise (correlation between cultures about 0.3); most hits were seen in one culture only. Human sequences are the Swiss-Prot entries looked up by gene name; the clone may be another isoform. NSP2 values were corrected by the authors for a growth advantage. Listed are human proteins with a hit and a random twelfth of the others.", "data": [{"molecular_target": "SARS-CoV-2 E", "experiment": "yeast fitness gain over the viral ORF with no human partner (scaled fitness); higher = more likely to interact", "experimental": "(§1)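 Split mouse DHFR complementation in pooled diploid yeast: human ORFeome clones carry one fragment and viral ORFs the other; barcoded lineages compete in 1 µg/mL methotrexate and fitness is read by barcode sequencing in up to three cultures.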", "values": [{"binder": "B1", "yeast fitness gain": "inactive: 0.0638"}, {"binder": "B2", "yeast fitness gain": "inactive: 0.0557"}, {"binder": "B3", "yeast fitness gain": "inactive: -0.00565"}]}, {"molecular_target": "SARS-CoV-2 M", "experiment": "yeast fitness gain over the viral ORF with no human partner (scaled fitness); higher = more likely to interact", "experimental": "as §1", "values": [{"binder": "B1", "yeast fitness gain": "inactive: 0.0409"}, {"binder": "B2", "yeast fitness gain": "inactive: -0.0186"}, {"binder": "B3", "yeast fitness gain": "inactive: 0.0372"}]}, {"molecular_target": "SARS-CoV-2 NSP1", "experiment": "yeast fitness gain over the viral ORF with no human partner (scaled fitness); higher = more likely to interact", "experimental": "as §1", "values": [{"binder": "B1", "yeast fitness gain": "inactive: -0.00766"}, {"binder": "B2", "yeast fitness gain": "inactive: -0.0149"}, {"binder": "B3", "yeast fitness gain": "inactive: -0.0189"}]}, {"molecular_target": "SARS-CoV-2 NSP10", "experiment": "yeast fitness gain over the viral ORF with no human partner (scaled fitness); higher = more likely to interact", "experimental": "as §1", "values": [{"binder": "B1", "yeast fitness gain": "inactive: -0.0557"}, {"binder": "B2", "yeast fitness gain": "inactive: 0.0466"}, {"binder": "B3", "yeast fitness gain": "inactive: 0.0313"}]}, {"molecular_target": "SARS-CoV-2 NSP12", "experiment": "yeast fitness gain over the viral ORF with no human partner (scaled fitness); higher = more likely to interact", "experimental": "as §1", "values": [{"binder": "B1", "yeast fitness gain": "inactive: 0.00131"}, {"binder": "B2", "yeast fitness gain": "inactive: 0.0375"}, {"binder": "B3", "yeast fitness gain": "inactive: -0.0114"}]}, {"molecular_target": "SARS-CoV-2 NSP13", "experiment": "yeast fitness gain over the viral ORF with no human partner (scaled fitness); higher = more likely to interact", "experimental": "as §1", "values": [{"binder": "B1", "yeast fitness gain": "inactive: 0.0161"}, {"binder": "B2", "yeast fitness gain": "inactive: 0.028"}, {"binder": "B3", "yeast fitness gain": "inactive: 0.0445"}]}, {"molecular_target": "SARS-CoV-2 NSP14", "experiment": "yeast fitness gain over the viral ORF with no human partner (scaled fitness); higher = more likely to interact", "experimental": "as §1", "values": [{"binder": "B1", "yeast fitness gain": "inactive: 0.0267"}, {"binder": "B2", "yeast fitness gain": "inactive: -0.334"}, {"binder": "B3", "yeast fitness gain": "inactive: -0.165"}]}, {"molecular_target": "SARS-CoV-2 NSP15", "experiment": "yeast fitness gain over the viral ORF with no human partner (scaled fitness); higher = more likely to interact", "experimental": "as §1", "values": [{"binder": "B1", "yeast fitness gain": "inactive: 0.00865"}, {"binder": "B2", "yeast fitness gain": "inactive: 0.0222"}, {"binder": "B3", "yeast fitness gain": "inactive: -0.0224"}]}, {"molecular_target": "SARS-CoV-2 NSP16", "experiment": "yeast fitness gain over the viral ORF with no human partner (scaled fitness); higher = more likely to interact", "experimental": "as §1", "values": [{"binder": "B1", "yeast fitness gain": "inactive: 0.0755"}, {"binder": "B2", "yeast fitness gain": "inactive: 0.0209"}, {"binder": "B3", "yeast fitness gain": "inactive: 0.0552"}]}, {"molecular_target": "SARS-CoV-2 NSP2", "experiment": "yeast fitness gain over the viral ORF with no human partner (scaled fitness); higher = more likely to interact", "experimental": "as §1", "values": [{"binder": "B1", "yeast fitness gain": "inactive: -0.112"}, {"binder": "B2", "yeast fitness gain": "inactive: -0.183"}, {"binder": "B3", "yeast fitness gain": "inactive: -0.137"}]}, {"molecular_target": "SARS-CoV-2 NSP4", "experiment": "yeast fitness gain over the viral ORF with no human partner (scaled fitness); higher = more likely to interact", "experimental": "as §1", "values": [{"binder": "B1", "yeast fitness gain": "inactive: -0.0261"}, {"binder": "B2", "yeast fitness gain": "inactive: -0.536"}, {"binder": "B3", "yeast fitness gain": "inactive: -0.0561"}]}, {"molecular_target": "SARS-CoV-2 NSP5", "experiment": "yeast fitness gain over the viral ORF with no human partner (scaled fitness); higher = more likely to interact", "experimental": "as §1", "values": [{"binder": "B1", "yeast fitness gain": "inactive: -0.0433"}, {"binder": "B2", "yeast fitness gain": "inactive: -0.0333"}, {"binder": "B3", "yeast fitness gain": "inactive: -0.0765"}]}, {"molecular_target": "SARS-CoV-2 NSP6", "experiment": "yeast fitness gain over the viral ORF with no human partner (scaled fitness); higher = more likely to interact", "experimental": "as §1", "values": [{"binder": "B1", "yeast fitness gain": "inactive: 0.0035"}, {"binder": "B2", "yeast fitness gain": "inactive: 0.0376"}, {"binder": "B3", "yeast fitness gain": "inactive: -0.0155"}]}, {"molecular_target": "SARS-CoV-2 NSP7", "experiment": "yeast fitness gain over the viral ORF with no human partner (scaled fitness); higher = more likely to interact", "experimental": "as §1", "values": [{"binder": "B1", "yeast fitness gain": "inactive: -0.00796"}, {"binder": "B2", "yeast fitness gain": "inactive: 0.0757"}, {"binder": "B3", "yeast fitness gain": "inactive: 0.0621"}]}, {"molecular_target": "SARS-CoV-2 NSP8", "experiment": "yeast fitness gain over the viral ORF with no human partner (scaled fitness); higher = more likely to interact", "experimental": "as §1", "values": [{"binder": "B1", "yeast fitness gain": "inactive: 0.04"}, {"binder": "B2", "yeast fitness gain": "inactive: -0.0702"}, {"binder": "B3", "yeast fitness gain": "inactive: 0.048"}]}, {"molecular_target": "SARS-CoV-2 NSP9", "experiment": "yeast fitness gain over the viral ORF with no human partner (scaled fitness); higher = more likely to interact", "experimental": "as §1", "values": [{"binder": "B1", "yeast fitness gain": "inactive: 0.0467"}, {"binder": "B2", "yeast fitness gain": "inactive: 0.0383"}, {"binder": "B3", "yeast fitness gain": "inactive: 0.0321"}]}, {"molecular_target": "SARS-CoV-2 ORF10", "experiment": "yeast fitness gain over the viral ORF with no human partner (scaled fitness); higher = more likely to interact", "experimental": "as §1", "values": [{"binder": "B1", "yeast fitness gain": "inactive: 0.0191"}, {"binder": "B2", "yeast fitness gain": "inactive: 0.00558"}, {"binder": "B3", "yeast fitness gain": "inactive: 0.0294"}]}, {"molecular_target": "SARS-CoV-2 ORF3A", "experiment": "yeast fitness gain over the viral ORF with no human partner (scaled fitness); higher = more likely to interact", "experimental": "as §1", "values": [{"binder": "B1", "yeast fitness gain": "inactive: 0.0551"}, {"binder": "B2", "yeast fitness gain": "inactive: 0.0253"}, {"binder": "B3", "yeast fitness gain": "inactive: -0.00488"}]}, {"molecular_target": "SARS-CoV-2 ORF3B", "experiment": "yeast fitness gain over the viral ORF with no human partner (scaled fitness); higher = more likely to interact", "experimental": "as §1", "values": [{"binder": "B1", "yeast fitness gain": "inactive: 0.0285"}, {"binder": "B2", "yeast fitness gain": "inactive: -0.0324"}, {"binder": "B3", "yeast fitness gain": "inactive: 0.0295"}]}, {"molecular_target": "SARS-CoV-2 ORF6", "experiment": "yeast fitness gain over the viral ORF with no human partner (scaled fitness); higher = more likely to interact", "experimental": "as §1", "values": [{"binder": "B1", "yeast fitness gain": "inactive: -0.015"}, {"binder": "B2", "yeast fitness gain": "inactive: 0.0175"}, {"binder": "B3", "yeast fitness gain": "inactive: -0.00853"}]}, {"molecular_target": "SARS-CoV-2 ORF7A", "experiment": "yeast fitness gain over the viral ORF with no human partner (scaled fitness); higher = more likely to interact", "experimental": "as §1", "values": [{"binder": "B1", "yeast fitness gain": "inactive: -0.0182"}, {"binder": "B2", "yeast fitness gain": "inactive: -0.0103"}, {"binder": "B3", "yeast fitness gain": "inactive: 0.00571"}]}, {"molecular_target": "SARS-CoV-2 ORF7B", "experiment": "yeast fitness gain over the viral ORF with no human partner (scaled fitness); higher = more likely to interact", "experimental": "as §1", "values": [{"binder": "B1", "yeast fitness gain": "inactive: 0.0425"}, {"binder": "B2", "yeast fitness gain": "inactive: -0.00919"}, {"binder": "B3", "yeast fitness gain": "inactive: 0.0135"}]}, {"molecular_target": "SARS-CoV-2 ORF8", "experiment": "yeast fitness gain over the viral ORF with no human partner (scaled fitness); higher = more likely to interact", "experimental": "as §1", "values": [{"binder": "B1", "yeast fitness gain": "inactive: 0.0308"}, {"binder": "B2", "yeast fitness gain": "inactive: 0.0168"}, {"binder": "B3", "yeast fitness gain": "inactive: 0.0221"}]}, {"molecular_target": "SARS-CoV-2 ORF9B", "experiment": "yeast fitness gain over the viral ORF with no human partner (scaled fitness); higher = more likely to interact", "experimental": "as §1", "values": [{"binder": "B1", "yeast fitness gain": "inactive: -0.0186"}, {"binder": "B2", "yeast fitness gain": "inactive: 0.0502"}, {"binder": "B3", "yeast fitness gain": "inactive: -0.0135"}]}, {"molecular_target": "SARS-CoV-2 ORF9Bwu (the 73-codon ORF)", "experiment": "yeast fitness gain over the viral ORF with no human partner (scaled fitness); higher = more likely to interact", "experimental": "as §1", "values": [{"binder": "B1", "yeast fitness gain": "inactive: 0.0698"}, {"binder": "B2", "yeast fitness gain": "inactive: 0.0219"}, {"binder": "B3", "yeast fitness gain": "inactive: 0.00828"}]}, {"molecular_target": "SARS-CoV-2 S", "experiment": "yeast fitness gain over the viral ORF with no human partner (scaled fitness); higher = more likely to interact", "experimental": "as §1", "values": [{"binder": "B1", "yeast fitness gain": "inactive: 0.00156"}, {"binder": "B2", "yeast fitness gain": "inactive: 0.0143"}, {"binder": "B3", "yeast fitness gain": "inactive: 0.0141"}]}, {"molecular_target": "SARS-CoV-2 N", "experiment": "yeast fitness gain over the viral ORF with no human partner (scaled fitness); higher = more likely to interact", "experimental": "as §1", "values": [{"binder": "B2", "yeast fitness gain": "inactive: -0.124"}, {"binder": "B3", "yeast fitness gain": "inactive: 0.000423"}]}]}
